These are yes or no findings as the source states them, for the method shown. Some entries that bind do so weakly or less than the wild type. Sequences can lack the tags named with a protein.
Assays:
[1] = biological target: Rpl42, Gal4 DNA-binding domain fusion (S. cerevisiae) (UniProt P0CX27); experiment: two-hybrid; competition: PJ69-4A carrying high-copy URA3 plasmid pADH195-RPS6A or empty YEplac195, co-transformed with bait and prey plasmids; media additionally lacking uracil
[2] = biological target: Rpl39, Gal4 DNA-binding domain fusion (S. cerevisiae) (UniProt P04650); experiment: as above
[3] = biological target: T1, Rps6 loop region plus C-terminal domain (residues 117–236), Gal4 DNA-binding domain fusion (S. cerevisiae) (UniProt P0CX37); experiment: two-hybrid; reporter strain PJ69-4A; bait fused to Gal4 DNA-binding domain (c-Myc), prey fused to Gal4 activation domain (HA); HIS3 reporter for weak, ADE2 reporter for strong interactions; plates 30°C, 3 days
T1 sequence: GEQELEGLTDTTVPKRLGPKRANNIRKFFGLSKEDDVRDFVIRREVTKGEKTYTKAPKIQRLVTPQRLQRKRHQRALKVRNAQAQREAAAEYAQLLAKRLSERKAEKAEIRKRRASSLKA

Amino acid sequences for entries named in this document (tags omitted).
UniProt P0CX27: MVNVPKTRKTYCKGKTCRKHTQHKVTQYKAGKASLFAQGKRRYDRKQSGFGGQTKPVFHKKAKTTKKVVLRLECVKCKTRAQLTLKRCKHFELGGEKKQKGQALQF
UniProt P04650: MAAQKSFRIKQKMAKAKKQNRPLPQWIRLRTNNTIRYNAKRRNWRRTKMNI

[4] = biological target: T2, Rps6 C-terminal domain (residues 176–236), Gal4 DNA-binding domain fusion (S. cerevisiae) (UniProt P0CX37); experiment: as above
T2 sequence: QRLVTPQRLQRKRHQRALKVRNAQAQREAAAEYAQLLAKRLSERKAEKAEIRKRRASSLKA

[5] = biological target: T3, Rps6 N-terminal domain plus loop (residues 1–181), Gal4 DNA-binding domain fusion (S. cerevisiae) (UniProt P0CX37); experiment: as above
T3 sequence: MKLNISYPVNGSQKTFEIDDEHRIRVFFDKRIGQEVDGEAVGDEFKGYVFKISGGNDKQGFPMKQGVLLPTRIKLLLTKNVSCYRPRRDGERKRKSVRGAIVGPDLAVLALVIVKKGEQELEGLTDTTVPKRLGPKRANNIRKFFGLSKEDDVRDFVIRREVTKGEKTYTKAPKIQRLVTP

[6] = biological target: T4, Rps3, Gal4 domain fusion (S. cerevisiae) (UniProt P05750); experiment: as above
T4 sequence: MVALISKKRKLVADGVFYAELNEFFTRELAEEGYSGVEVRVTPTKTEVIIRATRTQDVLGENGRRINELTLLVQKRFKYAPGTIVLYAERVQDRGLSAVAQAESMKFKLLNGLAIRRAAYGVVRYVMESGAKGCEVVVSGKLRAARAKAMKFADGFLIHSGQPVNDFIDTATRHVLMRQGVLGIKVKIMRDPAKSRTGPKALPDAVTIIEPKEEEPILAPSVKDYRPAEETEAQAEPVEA

[7] = biological target: Rpl42, Gal4 DNA-binding domain fusion (S. cerevisiae) (UniProt P0CX27); experiment: as above
[8] = biological target: T5, Rpl41, Gal4 domain fusion (S. cerevisiae) (UniProt P0CX86); experiment: as above
T5 sequence: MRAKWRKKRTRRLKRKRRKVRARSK

[9] = biological target: T6, Rpl18, Gal4 domain fusion (S. cerevisiae) (UniProt P0CX49); experiment: as above
T6 sequence: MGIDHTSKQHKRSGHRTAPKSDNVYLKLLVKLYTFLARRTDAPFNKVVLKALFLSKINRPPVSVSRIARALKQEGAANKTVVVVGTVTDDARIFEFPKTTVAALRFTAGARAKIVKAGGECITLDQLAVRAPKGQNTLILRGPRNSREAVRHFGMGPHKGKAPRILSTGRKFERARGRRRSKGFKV

[10] = biological target: Rpl39, Gal4 DNA-binding domain fusion (S. cerevisiae) (UniProt P04650); experiment: as above
[11] = biological target: T7, Rps6, Gal4 DNA-binding domain fusion (full-length) (S. cerevisiae) (UniProt P0CX37); experiment: as above
T7 sequence: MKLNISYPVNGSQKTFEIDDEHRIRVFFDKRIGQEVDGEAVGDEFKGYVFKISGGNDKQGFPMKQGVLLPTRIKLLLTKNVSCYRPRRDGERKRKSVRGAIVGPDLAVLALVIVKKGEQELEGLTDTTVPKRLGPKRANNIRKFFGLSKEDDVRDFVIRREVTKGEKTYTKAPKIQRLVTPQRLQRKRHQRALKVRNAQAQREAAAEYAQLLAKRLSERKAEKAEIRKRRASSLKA

binding [1]: binds | binding [2]: binds | binding [3]: binds | binding [4]: binds | binding [5]: binds | binding [6]: no binding | binding [7]: binds | binding [8]: no binding | binding [9]: no binding | binding [10]: binds | binding [11]: binds
B1: Nap1, Gal4 activation domain fusion (full-length) (protein, UniProt P25293 1-417)
chain: MSDPIRTKPKSSMQIDNAPTPHNTPASVLNPSYLKNGNPVRAQAQEQDDKIGTINEEDILANQPLLLQSIQDRLGSLVGQDSGYVGGLPKNVKEKLLSLKTLQSELFEVEKEFQVEMFELENKFLQKYKPIWEQRSRIISGQEQPKPEQIAKGQEIVESLNETELLVDEEEKAQNDSEEEQVKGIPSFWLTALENLPIVCDTITDRDAEVLEYLQDIGLEYLTDGRPGFKLLFRFDSSANPFFTNDILCKTYFYQKELGYSGDFIYDHAEGCEISWKDNAHNVTVDLEMRKQRNKTTKQVRTIEKITPIESFFNFFDPPKIQNEDQDEELEEDLEERLALDYSIGEQLKDKLIPRAVDWFTGAALEFEFEEDEEEADEDEDEEEDDDHGLEDDDGESAEEQDDFAGRPEQAPECKQS

Reference: article PMC6648895
